In ChEMBL document CHEMBL4888484, “Replenishing the malaria drug discovery pipeline: Screening and hit evaluation of the MMV Hit Generation Library 1 (HGL1) against asexual blood stage Plasmodium falciparum ,using a nano luciferase reporter read-out” (2022):
Out of some 150,000 compounds screened, about 540 (0.36%) showed an effect of 50% or more. The list shows a part of the results.

Test system: Plasmodium falciparum
Assay: Primary screen in NF54 nanoGlo assay, in single point, at 2uM, 72h; a lower Z score goes with more inhibition
Type: functional, Erythrocyte
Conditions: timepoint 72 hour

| Structure (SMILES) | % Inhibition [%] | Z score |
| --- | --- | --- |
| O=C(NCc1cncc(-c2cccs2)c1)c1ccccn1 | 5 | -0.69 |
| O=C(NCc1c(F)cccc1F)c1ccc(OCc2nc(C3CC3)cs2)cc1 | -21 | 4.02 |
| Cc1noc(-c2ccco2)c1C(=O)NCc1ccncc1 | -3 | 0.27 |
| CC[C@H](CO)NC(=O)NCc1cc(Cl)sc1Cl | -1 | 0.19 |
| C[C@@H](c1ccc(F)cc1)N(C)S(=O)(=O)CCOCC1CC1 | 2 | -0.24 |
| CCC(CC)c1cc(C(=O)N2CC3CN(Cc4ccccc4)CC3C2)on1 (stereo not given) | -5 | 0.55 |
| CN1C[C@H](CNC(=O)c2cn(Cc3cccc(F)c3)nn2)[C@@H](c2ccccc2)C1 | -4 | 0.46 |
| O=C(NCCN1CCC(CO)CC1)c1ccncc1Cl | 2 | -0.21 |
| CCN(CC)c1ccc(C(=O)N2CCN(c3ccccc3C)C(=O)C2)cc1 | 7 | -0.96 |
| COCCc1noc(CCCN2C(=O)c3ccccc3C2=O)n1 | -11 | 1.45 |
| Cc1c(-c2cccc(C(=O)NCC[C@H]3CCOC3)c2)c(C(F)(F)F)nn1C | 0 | 0.02 |
| C[C@H]1CCCN(CCCNC(=O)CCC(=O)N2Cc3ccccc3Oc3ncccc32)C1 | 3 | -0.36 |
| Cc1nc2ccccc2n1-c1nccc(N(C)C)n1 | 5 | -0.58 |
| Cc1noc(C)c1C(=O)N1CC(N2C(=O)C3CC=CCC3C2=O)C1 (stereo not given) | 17 | -1.94 |
| COc1ccc(CNC(=O)c2c(-c3ccccc3)nnc3ccc(C)cc23)cc1 | -4 | 0.49 |
| c1ccc(C[C@H](c2ccccc2)c2nc3ccccc3o2)cc1 | -40 | 4.68 |
| O=C(Cc1ccccc1Cl)N1CC(Cc2nncn2CC2CC2)C1 | -4 | 0.71 |
| CN1CCCC(N(C)C(=O)c2ccc(NC(=O)C3CCOC3)cc2)C1 (stereo not given) | -5 | 0.61 |
| CCc1c(C)nc(-c2cccc(C)c2)nc1N1CCN(C(=O)c2ccc(Cl)c(Cl)c2)CC1 | -5 | 0.52 |
| O=C1CCN(C(=O)c2ccccc2Nc2cccc(C(F)(F)F)c2)CCN1 | -5 | 0.92 |
| COC(=O)c1c(NC(C)=O)c2cc(NC3CCCCCC3)cnc2n1CCc1c[nH]c2ccccc12 | 12 | -2.21 |
| CNC(=O)c1ccc(OCc2nc(C(C)C)ns2)cc1 | 32 | -3.57 |

| Structure (SMILES) | % Inhibition [%] | Z score |
| --- | --- | --- |
| CCOc1ccc(NS(=O)(=O)c2ccc3c(c2)OCCO3)cc1S(=O)(=O)N1CCCCC1 | -9 | 1.26 |
| Cn1cnc(CCNC(=O)C2CCC(C)(C)CC2)n1 | 4 | -0.62 |
| O=C(c1ccc[n+]([O-])c1)N(CCc1ccccc1)C1CCCC1 | -14 | 1.52 |
| COCCOC(=O)N1CCCC[C@H](NC(=O)CCC(F)(F)F)C1 | -7 | 0.91 |
| O=C(NC1CC1C1CCCCC1)c1cn(CC(=O)N2CCCC2)nn1 (stereo not given) | -3 | 0.26 |
| O=S(=O)(c1ccc2c(c1)CCCC2)N1CCNCC1 | -23 | 1.92 |
| CCc1nccn1Cc1nc(CCOC)no1 | -18 | 1.57 |
| Cc1cc(C)n(CC2(CNC(=O)Nc3ccc4c(c3)COC4=O)CC2)n1 | -10 | 1.34 |
| Cc1nnc(CNC(=O)[C@]2(C)COc3ccccc3O2)n1C1CC1 | -4 | 0.75 |
| O=C(CN1CC(=O)NC1=O)NCC1(c2cccc(F)c2)CCCCC1 | -15 | 1.23 |
| CCCc1nnc(NCCCN2CCOCC2)o1 | -3 | 0.49 |
| COCCOc1cc(Cn2nc(C)cc2C)ccn1 | -2 | 0.34 |
| O=C(NC(c1ccccc1)C1CCCO1)c1ccnc(C(=O)O)c1 (stereo not given) | -4 | 0.64 |
| CCNC(=O)COc1c(F)cccc1OC | 7 | -0.96 |
| CC(C)c1nnc([C@H](C)NC(=O)c2cc(C3CC3)[nH]n2)o1 | 11 | -1.41 |
| O=C(NC1CCCC1)[C@H]1CCCN(S(=O)(=O)c2ccccc2)CCc2nnc(-c3cccnc3)n2CC1 | 3 | -0.37 |
| COc1ccc(NC(=O)c2ccc(NC(=O)CCc3cccs3)cc2)cc1 | -16 | 2.19 |
| COc1ccc(CCNC(=O)c2ccc(Cn3c(=O)c4ccccc4n(CC(=O)Nc4cccc(F)c4)c3=O)cc2)cc1OC | -14 | 2.06 |
| COc1cccc(N2CC(=O)N=C2Nc2nc(C)cc(C)n2)c1 | 10 | -1.31 |
| CCCc1cc(C(=O)NCc2cc3n(n2)CCCN(CCC)C3)cs1 | -3 | 0.46 |
| C#CCCC1(CCC(=O)N2CCC[C@H]2c2nncn2C)N=N1 | -9 | 1.12 |
| C=CCN=C(NCC=C)NCc1nc([C@H](C)OCC)no1 | 5 | -0.62 |

| Structure (SMILES) | % Inhibition [%] | Z score |
| --- | --- | --- |
| O=C(O)C1CC=CCC1C(=O)N1CCCc2ccccc21 (stereo not given) | -10 | 1.24 |
| CCc1ccc(CNC(=O)Nc2cccnn2)s1 | 1 | -0.24 |
| O=C(Nc1ccccc1F)[C@H]1CCCN(CC(F)F)C1 | -9 | 1.27 |
| C#CCCC1(CCC(=O)N2CCCC[C@H]2c2ccco2)N=N1 | -6 | 0.92 |
| C[C@H](Nc1ncccc1C#N)c1cccc(-n2cccn2)c1 | -11 | 1.61 |
| CCOC(=O)c1ccc(Nc2nnc(Cc3csc(N)n3)s2)cc1 | -4 | 0.52 |
| COCCCN(Cc1csc(COc2cccc(C)c2)n1)C(=O)c1ccco1 | 1 | -0.19 |
| CC(=O)NCCOc1cc(Cl)ccc1Cl | -14 | 1.95 |
| CC(C)C[C@H](NC(=O)c1ccc(N2CCCCS2(=O)=O)cc1Cl)c1nc2ccccc2n1C | 5 | -0.71 |
| CC(C)CNC(=O)CN[C@@](C)(CO)C1CCCCC1 | -14 | 1.42 |
| N#Cc1ccnc(C=Cc2cn(-c3ccc(F)cc3Cl)nn2)n1 | -14 | 1.68 |
| CCN(CC)C(=O)[C@H](C)Nc1cnn(C(C)(C)C)c1 | -7 | 0.75 |
| CCOC(=O)c1sc2nc(-c3ccc(O)cc3)c(NCc3ccc(F)cc3)n2c1C | -3 | 0.34 |
| Cc1nc(NC(=O)N[C@H]2CCCNC2=O)sc1C | -3 | 0.47 |
| O=C(Nc1nc2cc3c(cc2[nH]1)OCO3)C1C2CCCC21 (stereo not given) | 11 | -1.4 |
| CCOC(=O)Nc1ccc(Br)c(C)c1 | -13 | 1.15 |
| CCC(=O)Nc1ccc2c(c1)CN(C(=O)Cc1ccc(C)cc1)[C@H](C(=O)N1CCCC1)C2 | -6 | 0.9 |
| COCCCN(C)C(=O)N1CCn2c(Cc3cccc(Br)c3)nnc2C1 | -1 | 0.14 |
| CCC[C@H]1CN(CC(=O)Nc2ccc(C)cn2)C[C@@H]1N(C)C | 0 | 0.02 |
| Cc1ccc(NC(=O)N2C[C@H](c3nnc(-c4ccncc4)o3)C3(CCOCC3)C2)cc1C | -1 | 0.27 |
| C[C@@H](C(=O)NCC1CCOCC1)n1nc2c(cc1=O)CCC2 | 22 | -2.85 |
| CCN(C(=O)Cn1c(C)cc(C)c(-c2nc(-c3ccc(Cl)cc3)no2)c1=O)c1cccc(C)c1 | -1 | 0.05 |

| Structure (SMILES) | % Inhibition [%] | Z score |
| --- | --- | --- |
| OC1CN(c2ncnc3scc(-c4ccccc4)c23)C1 | 9 | -1.03 |
| CC(C)c1nnc([C@H]2CN(C(=O)c3ccc(F)cc3F)CC23CCN(C)CC3)o1 | 2 | -0.34 |
| O=C(Nc1ccc(-c2ccno2)cc1)C1CCN(S(=O)(=O)c2ccc3c(c2)CCCN3C(=O)C2CCC2)CC1 | -29 | 5.6 |
| Cc1c(-c2cnn(C)c2)nc(N)c(C#N)c1-c1ccc(N(C)C)cc1 | 5 | -0.93 |
| COc1cc(OC)cc(C(=O)N2CCc3nc(-c4ccccc4)nc(N4CC(C)OC(C)C4)c3C2)c1 (stereo not given) | 18 | -1.69 |
| Cc1coc(-c2ccc(C)c(NC(=O)CCN3C(=O)CCC3=O)c2)n1 | 40 | -5.44 |
| CCN(Cc1cc(Br)ccc1O)C(=O)CCc1c(C)[nH]c(=O)c(C#N)c1C | -2 | 0.45 |
| CCc1nnc(CN2CCN(CC3CC3)c3ccccc32)o1 | -7 | 0.83 |
| O=S(=O)(C1CN(c2ccc(C(F)(F)F)nn2)C1)N1CCOCC1 | -4 | 0.44 |
| CCc1nccn1CCCNC(=O)c1ncc(F)cc1F | -6 | 1.02 |
| O=S(=O)(c1cnc2ccccc2c1)N1CCOC2(CCCCCC2)C1 | -2 | 0.35 |
| COc1ccc(Br)cc1CNc1ccc(-c2nc3ccc(C)cc3s2)cc1 | 19 | -2.47 |
| O=C(CCn1cnc2ccccc2c1=O)c1ccc2c(c1)OCCO2 | -6 | 0.79 |
| CCn1ncnc1CNC(=O)C1C2CCCC21 (stereo not given) | 30 | -3.43 |
| CN(CCN(C)S(=O)(=O)N1CCCC1)C1CCCC1 | -4 | 0.68 |
| O=C(c1cnns1)N1CCC(CC(F)(F)F)CC1 | -1 | 0.12 |
| O=C(COc1cccc(Br)c1)N1CCC[C@H](c2nc3ccccc3s2)C1 | -1 | 0.06 |
| Cc1ncoc1C(=O)N1CC(=O)N(CC(C)C)C[C@H](OCc2cccnc2)C1 | 4 | -0.5 |
| CCN1C[C@H](NS(=O)(=O)c2ccccc2F)[C@@H](OC)C1 | -7 | 0.95 |
